Experimental data taken from paper PMC4336329 (PLoS ONE, 2015).
Among all 310,000 compounds or so, about 14,000 (4.5%) showed an effect of 50% or more. The effect is printed as a negative number. Some of the results follow.

target: human ether-à-go-go-related gene (hERG) potassium channel (human, UniProt Q12809); experiment: primary screen, population patch clamp on CHO cells stably expressing hERG
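Further: peak tail current of the secondary pulse compared with the same well before compound.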

Chain of human ether-à-go-go-related gene (hERG) potassium channel (Q12809 whole entry, looked up): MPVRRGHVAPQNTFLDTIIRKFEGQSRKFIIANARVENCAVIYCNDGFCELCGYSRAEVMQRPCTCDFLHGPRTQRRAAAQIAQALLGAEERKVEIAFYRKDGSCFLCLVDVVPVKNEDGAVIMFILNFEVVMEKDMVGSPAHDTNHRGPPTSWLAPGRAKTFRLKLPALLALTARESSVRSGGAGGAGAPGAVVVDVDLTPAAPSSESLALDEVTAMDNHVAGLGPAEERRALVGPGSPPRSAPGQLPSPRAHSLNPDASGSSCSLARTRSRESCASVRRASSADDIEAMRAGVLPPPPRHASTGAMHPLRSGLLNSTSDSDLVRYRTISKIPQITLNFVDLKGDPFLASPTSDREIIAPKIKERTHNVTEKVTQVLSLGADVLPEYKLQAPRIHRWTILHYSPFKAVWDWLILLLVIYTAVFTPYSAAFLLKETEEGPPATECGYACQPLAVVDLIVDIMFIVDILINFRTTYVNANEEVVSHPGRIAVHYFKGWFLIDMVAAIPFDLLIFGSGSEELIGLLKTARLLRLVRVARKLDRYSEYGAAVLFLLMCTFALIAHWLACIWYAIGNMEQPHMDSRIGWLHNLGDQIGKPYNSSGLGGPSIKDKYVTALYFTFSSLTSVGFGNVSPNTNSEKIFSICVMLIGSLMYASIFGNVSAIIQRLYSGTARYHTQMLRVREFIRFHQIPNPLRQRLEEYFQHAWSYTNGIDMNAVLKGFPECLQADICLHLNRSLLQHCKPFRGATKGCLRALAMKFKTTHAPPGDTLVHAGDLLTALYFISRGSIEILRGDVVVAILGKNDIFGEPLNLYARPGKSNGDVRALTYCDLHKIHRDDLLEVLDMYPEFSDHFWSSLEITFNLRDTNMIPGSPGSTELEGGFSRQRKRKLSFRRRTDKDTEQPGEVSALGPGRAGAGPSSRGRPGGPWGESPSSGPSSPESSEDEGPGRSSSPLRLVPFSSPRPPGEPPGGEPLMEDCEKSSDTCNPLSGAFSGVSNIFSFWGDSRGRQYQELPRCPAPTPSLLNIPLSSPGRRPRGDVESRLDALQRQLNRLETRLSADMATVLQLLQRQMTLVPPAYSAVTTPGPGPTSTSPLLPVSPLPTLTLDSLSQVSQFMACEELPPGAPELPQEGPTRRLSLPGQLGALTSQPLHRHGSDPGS

| SMILES | hERG current change (%, negative = inhibition) at 10uM [%] |
| --- | --- |
| O=C(CN1CCN(Cc2ccccc2Cl)CC1)N/N=C/c1cccs1 | -20.4 |
| O=C(/C=C/Nc1cccc(C(F)(F)F)c1)c1ccco1 | 6.62 |
| CCCCc1nnc(NC(=O)CSc2nc(N)cc(=O)[nH]2)s1 | 25.7 |
| C#CC[N+]1(C)[C@@H]2CC(OC(=O)C(CO)c3ccccc3)C[C@H]1C(O)C2.[Br-] (some centres unmarked) | 7.98 |
| COc1ccc(Cl)cc1C(=O)CSc1nc(N)cc(N)n1 | 0.369 |
| O=C(NCCO)/C(=C\c1ccco1)NC(=O)c1ccco1 | 1.44 |
| CN(Cc1cc(=O)n2ccsc2n1)Cc1nc2ccccc2c(=O)[nH]1 | -0.504 |
| NC(=O)c1ccccc1NC(=O)CCCCCn1nnc2ccccc2c1=O | -19 |
| CN1CCN(c2ccc(NC(=O)c3cc([N+](=O)[O-])ccc3N3CCOCC3)cc2)CC1 | -2.4 |
| NC(=S)COc1ccccc1 | 17.3 |
| CC(c1nc2ccccc2c(=O)[nH]1)N(C)CCOc1ccc(Cl)cc1 (centres unmarked) | -39.2 |
| COc1cc(-c2nc3ccccn3c2/N=C/c2cccc(OC)c2O)ccc1O | -7.33 |
| CC(C)Oc1ccc(C2CC(=O)N(c3cccc(C(=O)O)c3)C2=O)cc1 (centres unmarked) | 6.14 |
| Cc1nonc1C(=O)N/N=C/c1ccc(O)cc1O | 14 |
| COc1cccc(-n2nnc3c(=O)n(C/C=C/c4ccccc4)cnc32)c1 | -15.9 |
| C=CCC1(N(C(C)=O)c2ccccc2)CCCCC1 | 5.28 |
| CCCCc1c(C)nc(N)[nH]c1=O | 18.3 |
| Cc1c(N=C(N)/N=C(\N)Nc2ccccc2)c(=O)n(-c2ccccc2)n1C | 5.99 |
| COc1ccc(C(=O)C(C)OC(=O)c2sc(C)nc2C)cc1 (centres unmarked) | 4.58 |

| SMILES | hERG current change (%, negative = inhibition) at 10uM [%] |
| --- | --- |
| CCCn1c(SCc2nc(N)nc(N3CCCCC3)n2)nc2c1c(=O)n(C)c(=O)n2C | 0.163 |
| Cc1c(C(C)C)c(=O)n(-c2ccc(S(=O)(=O)N3CCOCC3)cc2)n1C | 17.4 |
| COc1ccc(CCNC(=O)CSc2nnc(-c3ccccc3)o2)cc1OC | -11.1 |
| Cc1ccc(Cn2ccc(NC(=O)CCSc3nc(-c4ccco4)cc(C(F)(F)F)n3)n2)cc1 | 6.84 |
| Cc1ccc(-n2c(CCc3ccccc3)n[nH]c2=S)cc1C | 17.1 |
| CCOC(=O)c1cc2c(=O)c3cc(C)ccc3oc2nc1C | 14.3 |
| N#CC1=C(N)Oc2n[nH]c(-c3cccs3)c2C1c1ccco1 (centres unmarked) | 10.6 |
| COc1ccc(-n2c(SCC(=O)NCCCN3CCCC3=O)nnc2C(C)N2CCCCC2)cc1 (centres unmarked) | 43.4 |
| COc1ccccc1C(=O)Nc1ccc(N2CCCCC2)cc1 | -9.04 |
| CCOc1ccc(-n2c(O)c(C=Nc3ccc(NC(C)=O)cc3)c(=O)[nH]c2=O)cc1 | -0.319 |
| N#CC1=C(N)N(c2ccc(Oc3ccccc3)cc2)C(=O)C1 | -18.4 |
| COc1ccc(CCNC(=O)C2CCC(CNS(=O)(=O)c3ccc(F)cc3)CC2)cc1OC (centres unmarked) | 21.3 |
| O=C(NNc1ccccc1[N+](=O)[O-])Nc1cccc(Cl)c1 | 19.3 |
| CCOC(=O)[C@@H]1[C@H]2COc3cc(OC)ccc3[C@@H]2N2C(=O)N(c3ccc(C)cc3)C(=O)[C@]12C | -2.33 |
| O=S(=O)(NCc1cccs1)c1ccc(Cl)s1 | 2.82 |
| CS(=O)(=O)N(CC(=O)NCc1ccc2c(c1)OCO2)c1ccc(Cl)cc1 | 1.65 |
| O=C(c1ccc(Br)cc1)c1cc([N+](=O)[O-])ccc1N1CCCCC1 | -25.3 |
| O=C(CSc1nnc(-c2ccccc2)n1Cc1ccco1)Nc1ccc2c(c1)OCCO2 | 1.43 |
| O=C(NNC1CC(=O)N(c2ccc(Br)cc2)C1=O)c1ccco1 (centres unmarked) | 7 |

| SMILES | hERG current change (%, negative = inhibition) at 10uM [%] |
| --- | --- |
| COC(=O)c1ccc(C(=O)OC)c(NC(=O)CN2CCC(C)CC2)c1 | 64.2 |
| Cc1cc(N2CCCC2=O)ccc1S(=O)(=O)NC1CCCCC1 | 2.14 |
| c1ccc(COCC2CCNCC2)cc1 | 23.6 |
| COc1cccc(C2=NOC(C(=O)Nc3cccnc3Cl)C2)c1OC (centres unmarked) | 12.9 |
| COc1ccc([N+](=O)[O-])c(S(=O)(=O)c2ccccc2)n1 | 7.93 |
| CSc1cccc(NC(=O)C2CCN(C(=O)c3ccccc3C)CC2)c1 | -18.7 |
| COc1ccc(-c2csc(NC(=O)Nc3ccccc3)n2)cc1 | 17.8 |
| CCOC(=O)C(O)(CC(=O)c1ccc(Cl)cc1)C(=O)OCC | -3.44 |
| O=C(CCCn1c(=S)[nH]c2ccsc2c1=O)NCCc1ccccc1 | 4.05 |
| O=C(NCc1ccco1)C(NS(=O)(=O)c1cccc2nsnc12)c1ccccc1 (centres unmarked) | -14.5 |
| COc1ccccc1NC(=O)Cn1c2ccc(F)cc2c2nc3n(c(=O)c21)CCS3 | -12.6 |
| O=C1CC(Sc2ccc(Cl)cc2)C(=O)N1c1ccc2c(c1)OCCO2 (centres unmarked) | 1.43 |
| O=C(CCN1C(=O)/C(=C/c2ccc(Cl)cc2)SC1=S)NC1C=CS(=O)(=O)C1 (centres unmarked) | 16.3 |
| COc1ccc(NC(=O)CN2C(=O)NC3(CCCC3)C2=O)cc1OC | 22.8 |
| CCCSc1ccc(-c2nn(-c3ccccc3)cc2/C=C(/C#N)C(=O)NCCCOC)cc1 | 5.33 |
| O=C(c1ccc(-c2ccccc2)c(F)c1)C1CCCN(CCCn2cccn2)C1 (centres unmarked) | -69.6 |
| O=C(CN1CCN(c2ncccn2)CC1)NCc1ccc2c(c1)OCO2 | 20.4 |
| Cc1cccc(OCc2nc(-c3ccc(-n4cccc4)cc3)no2)c1 | 12.2 |
